Measurements taken from the supplement of paper PMC11125491.
± gives the standard deviation of the averaged measurements. Growth of baker's yeast expressing single-residue variants of Pneumocystis jirovecii dihydrofolate reductase in 8.8 or 44 µM methotrexate (about 75% and 90% inhibition of the wild type). Selection coefficient per generation; 0 = like wild type, above 0 = less sensitive, below 0 = more sensitive or loss of function. No active / inactive call per row; the paper calls resistant above 0.220 (8.8 µM) or 0.243 (44 µM) together with a significance test. At 44 µM about 15% of codons end with one read or none, so the lowest values are floors (replicate rank correlation 0.74; 0.94 at 8.8 µM).

B1: UniProt A0EPZ9; numbered along this chain (parent)
chain: MDWQKSLTLIVALTLSRGIGLKNDLPWKLKSDMMFFSRVTSGLLVTRSTGQMNVVLMGRKTWESLPAHSRPLKNRINVVISRQEVLDLGGGAYHARSLDDALALLSQIYDSTSKIQLNRVFVIGGGELCKAAMEHSRLNRIIATVIHNEVDCDVFFPIDFRSSQSCLPWRKQDHSVLEAWVGSKVPQGKINENGFIYEFEMWIRDI

Variants of: B1
Assay: selection coefficient against synonymous wild-type codons (log2 per generation); higher = faster growth than wild type
Details: with Saccharomyces cerevisiae carrying the variant on a plasmid
Procedure: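 Pooled growth of yeast carrying single-residue variants of P. jirovecii dihydrofolate reductase (own DFR1 gene intact), two passages at 30 °C, three cultures, sequenced before and after. Codons with under 15 starting reads are left out; codons of one change are averaged.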

Variant	selection coefficient against synonymous wild-type codons (log2) (methotrexate 8.8 µM)	selection coefficient against synonymous wild-type codons (log2) (methotrexate 44 µM)
MDWQKSLTLIVALTLSRGIGLKNDLPWKLKSDMMFFSRVTSGLLVTRSTGQMNVVLMGRKTWESLPAHSRPLKNRINVVISRQEVLDLGGGAYHARSLDDALALLSQIYDSTSKIQLNRVFVIGGGELCKAAMEHSRLNRIIATVIHNEVDCDVFFPIDFRSSQSCLPWRKQDHSWLEAWVGSKVPQGKINENGFIYEFEMWIRDI [V176W]	-0.17 ± 0.12	-0.288 ± 0.13
MDWQKSLTLIVALTLSRGIGLKNDLPWKLKSDMMFFSRVTSGLLVTRSTGQMNVVLMGRKTWESLPAHSRPLKNRINVVISRQEVLDLGGGAYHARSLDDALALLSQIYDSTSKIQLNRVFVIGGGELCKAAMEHSRLNRIIATVIHNEVDCDVFFPIDFRSSQSCLPWRKQDHSYLEAWVGSKVPQGKINENGFIYEFEMWIRDI [V176Y]	-0.114 ± 0.043	-0.178 ± 0.041
MDWQKSLTLIVALTLSRGIGLKNDLPWKLKSDMMFFSRVTSGLLVTRSTGQMNVVLMGRKTWESLPAHSRPLKNRINVVISRQEVLDLGGGAYHARSLDDALALLSQIYDSTSKIQLNRVFVIGGGELCKAAMEHSRLNRIIATVIHNEVDCDVFFPIDFRSSQSCLPWRKQDHSVAEAWVGSKVPQGKINENGFIYEFEMWIRDI [L177A]	0.0563 ± 0.068	-0.026 ± 0.14
MDWQKSLTLIVALTLSRGIGLKNDLPWKLKSDMMFFSRVTSGLLVTRSTGQMNVVLMGRKTWESLPAHSRPLKNRINVVISRQEVLDLGGGAYHARSLDDALALLSQIYDSTSKIQLNRVFVIGGGELCKAAMEHSRLNRIIATVIHNEVDCDVFFPIDFRSSQSCLPWRKQDHSVCEAWVGSKVPQGKINENGFIYEFEMWIRDI [L177C]	-0.0531 ± 0.073	-0.102 ± 0.018
MDWQKSLTLIVALTLSRGIGLKNDLPWKLKSDMMFFSRVTSGLLVTRSTGQMNVVLMGRKTWESLPAHSRPLKNRINVVISRQEVLDLGGGAYHARSLDDALALLSQIYDSTSKIQLNRVFVIGGGELCKAAMEHSRLNRIIATVIHNEVDCDVFFPIDFRSSQSCLPWRKQDHSVDEAWVGSKVPQGKINENGFIYEFEMWIRDI [L177D]	-0.679 ± 0.18	-0.474 ± 0.032
MDWQKSLTLIVALTLSRGIGLKNDLPWKLKSDMMFFSRVTSGLLVTRSTGQMNVVLMGRKTWESLPAHSRPLKNRINVVISRQEVLDLGGGAYHARSLDDALALLSQIYDSTSKIQLNRVFVIGGGELCKAAMEHSRLNRIIATVIHNEVDCDVFFPIDFRSSQSCLPWRKQDHSVEEAWVGSKVPQGKINENGFIYEFEMWIRDI [L177E]	-0.27 ± 0.021	-0.065 ± 0.063
MDWQKSLTLIVALTLSRGIGLKNDLPWKLKSDMMFFSRVTSGLLVTRSTGQMNVVLMGRKTWESLPAHSRPLKNRINVVISRQEVLDLGGGAYHARSLDDALALLSQIYDSTSKIQLNRVFVIGGGELCKAAMEHSRLNRIIATVIHNEVDCDVFFPIDFRSSQSCLPWRKQDHSVFEAWVGSKVPQGKINENGFIYEFEMWIRDI [L177F]	-0.0839 ± 0.041	-0.12 ± 0.054
MDWQKSLTLIVALTLSRGIGLKNDLPWKLKSDMMFFSRVTSGLLVTRSTGQMNVVLMGRKTWESLPAHSRPLKNRINVVISRQEVLDLGGGAYHARSLDDALALLSQIYDSTSKIQLNRVFVIGGGELCKAAMEHSRLNRIIATVIHNEVDCDVFFPIDFRSSQSCLPWRKQDHSVGEAWVGSKVPQGKINENGFIYEFEMWIRDI [L177G]	-0.11 ± 0.042	-0.164 ± 0.1
MDWQKSLTLIVALTLSRGIGLKNDLPWKLKSDMMFFSRVTSGLLVTRSTGQMNVVLMGRKTWESLPAHSRPLKNRINVVISRQEVLDLGGGAYHARSLDDALALLSQIYDSTSKIQLNRVFVIGGGELCKAAMEHSRLNRIIATVIHNEVDCDVFFPIDFRSSQSCLPWRKQDHSVHEAWVGSKVPQGKINENGFIYEFEMWIRDI [L177H]	-0.178 ± 0.048	-0.329 ± 0.079
MDWQKSLTLIVALTLSRGIGLKNDLPWKLKSDMMFFSRVTSGLLVTRSTGQMNVVLMGRKTWESLPAHSRPLKNRINVVISRQEVLDLGGGAYHARSLDDALALLSQIYDSTSKIQLNRVFVIGGGELCKAAMEHSRLNRIIATVIHNEVDCDVFFPIDFRSSQSCLPWRKQDHSVIEAWVGSKVPQGKINENGFIYEFEMWIRDI [L177I]	0.00532 ± 0.0097	-0.0699 ± 0.11
MDWQKSLTLIVALTLSRGIGLKNDLPWKLKSDMMFFSRVTSGLLVTRSTGQMNVVLMGRKTWESLPAHSRPLKNRINVVISRQEVLDLGGGAYHARSLDDALALLSQIYDSTSKIQLNRVFVIGGGELCKAAMEHSRLNRIIATVIHNEVDCDVFFPIDFRSSQSCLPWRKQDHSVKEAWVGSKVPQGKINENGFIYEFEMWIRDI [L177K]	-0.357 ± 0.035	-0.127 ± 0.05
MDWQKSLTLIVALTLSRGIGLKNDLPWKLKSDMMFFSRVTSGLLVTRSTGQMNVVLMGRKTWESLPAHSRPLKNRINVVISRQEVLDLGGGAYHARSLDDALALLSQIYDSTSKIQLNRVFVIGGGELCKAAMEHSRLNRIIATVIHNEVDCDVFFPIDFRSSQSCLPWRKQDHSVMEAWVGSKVPQGKINENGFIYEFEMWIRDI [L177M]	0.0135 ± 0.026	-0.0694 ± 0.16
MDWQKSLTLIVALTLSRGIGLKNDLPWKLKSDMMFFSRVTSGLLVTRSTGQMNVVLMGRKTWESLPAHSRPLKNRINVVISRQEVLDLGGGAYHARSLDDALALLSQIYDSTSKIQLNRVFVIGGGELCKAAMEHSRLNRIIATVIHNEVDCDVFFPIDFRSSQSCLPWRKQDHSVNEAWVGSKVPQGKINENGFIYEFEMWIRDI [L177N]	-0.241 ± 0.033	-0.233 ± 0.1
MDWQKSLTLIVALTLSRGIGLKNDLPWKLKSDMMFFSRVTSGLLVTRSTGQMNVVLMGRKTWESLPAHSRPLKNRINVVISRQEVLDLGGGAYHARSLDDALALLSQIYDSTSKIQLNRVFVIGGGELCKAAMEHSRLNRIIATVIHNEVDCDVFFPIDFRSSQSCLPWRKQDHSVPEAWVGSKVPQGKINENGFIYEFEMWIRDI [L177P]	-0.724 ± 0.058	-0.371 ± 0.077
MDWQKSLTLIVALTLSRGIGLKNDLPWKLKSDMMFFSRVTSGLLVTRSTGQMNVVLMGRKTWESLPAHSRPLKNRINVVISRQEVLDLGGGAYHARSLDDALALLSQIYDSTSKIQLNRVFVIGGGELCKAAMEHSRLNRIIATVIHNEVDCDVFFPIDFRSSQSCLPWRKQDHSVQEAWVGSKVPQGKINENGFIYEFEMWIRDI [L177Q]	-0.167 ± 0.027	-0.203 ± 0.056
